Data taken from ChEMBL document CHEMBL1201862, “PubChem BioAssay data set” (2004).
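Cultured in 96-well plates, cells were exposed to test compound for 48 hours across five concentrations. GI50 marks 50% less growth.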 The source made the active and inactive calls. Rule as the data show it: active = GI50 up to about 1.1 µM and inactive = higher.

tested on: NCI-H322M; assay: DTP human tumour cell line panel, 48 h

Compound	GI50
O/N=C\C(=N/O)Nc1ccc(Cc2ccc(NC(/C=N\O)=N/O)cc2)cc1	inactive: 36.9 µM
Cc1cc(C)n(C2=NS(=O)(=O)c3ccccc3N2C)n1	inactive: > 100 µM
COc1cc2[nH]c3c(c2cc1OC)CCN[C@]31CC[C@]2(CC3c4c(cc(OC)c(O)c42)CCN3C)C[C@H]1OC (stereo partly specified)	inactive: 32.3 µM
CC(=O)OCC1OC(OC2CC3C(C)(C)C(O)CC[C@]3(C)C3CCC45CC4(CCC5[C@@H](C)CC(O)C(O)C(C)(C)O)[C@]23C)C(O)C(O)C1O (stereo partly specified)	inactive: > 10 µM
O=C(O)CCNCCCNCCC(=O)O	inactive: > 100 µM
C[C@]12CC/C(=N\OCCN3CCCCC3)C=C1CCC1C2CC[C@@]2(C)C1CC[C@]2(C)O (stereo partly specified)	inactive: 11 µM
CCOC(=O)Cn1c(=O)n(C)c(=O)c2c1ncn2Cc1ccccc1	inactive: > 100 µM
O=C(NCc1ccccc1)c1cc2ccccc2o/c1=N\c1ccccc1F	inactive: 28.8 µM
Cc1ccc(Oc2ccccc2N)cc1	inactive: 25.4 µM
COC(=O)N/N=C(/CCN1CCCC1)CC(c1ccccc1)c1c(O)c2ccccc2oc1=O (stereo unspecified)	inactive: > 100 µM
CNC(=O)Oc1ccc(-c2cn3cc(OC(=O)NC)ccc3n2)cc1	inactive: 38.7 µM
N/N=C1/C(=O)N(c2ccc(Cl)cc2)C(=O)C(=O)C1c1nc2ccccc2s1 (stereo unspecified)	inactive: > 100 µM
CCOC(=O)c1c(N2CCCC2)nsc1Nc1ccccc1	inactive: > 100 µM
COc1cccc(C2c3cc4c(cc3OC(NNc3ccccc3)C2C)OCO4)c1O (stereo unspecified)	inactive: 3.94 µM
CO/C(=N\N=C\c1ccc(OC)c(OC)c1)c1ccncc1	inactive: > 10 µM
CCCCCCCCCCOc1ccc(/N=N/c2nnc(-c3ccc(OCCCCC)cc3)s2)cc1	inactive: > 100 µM
O=c1c2cccnc2[nH]c2ccc3cn[nH]c3c12	inactive: 6.43 µM
CC1=NN(c2cccc(Cl)c2)C2(SCC(=O)N2c2nc3ccccc3s2)/C1=C\c1ccccc1 (stereo unspecified)	inactive: 25.3 µM
CC1OC(O[C@H]2CC[C@]3(C=O)[C@H]4CC[C@]5(C)[C@H](C6=CC(=O)OC6)CC[C@]5(O)[C@@H]4C=C[C@]3(O)C2)CC(O)C1O (stereo partly specified)	active: 0.497 µM
Cc1cccc2[n+]1[C@H]1[C@H]([C@@H]3O[C@H]1c1ccccc13)[S+]([O-])N2 (stereo partly specified)	inactive: 84.3 µM
COc1ccc(/C=C/C(=O)Oc2ccc(/C=C3\CCCCC3=O)cc2)cc1	inactive: > 100 µM
O=c1ccn([C@@H]2C=C(CO)[C@@H](O)[C@H]2O)c(=O)[nH]1	inactive: > 625 µM
COc1ccc2nc3cc(Cl)ccc3c(NCCCCCC(=O)NC(COc3ccc4ccc5cccnc5c4n3)COc3ccc4ccc5cccnc5c4n3)c2c1	inactive: 19.5 µM

Compound	GI50
COc1cc2c(cc1O)C(=O)O[C@@H]1CC=C3CCN(C)[C@H]3[C@H]21	inactive: > 25 µM
CCOC(=O)C1=C(C)C2C3C(=O)NC(=O)C3C1(C)C1C(=O)NC(=O)C21 (stereo unspecified)	inactive: > 100 µM
Cc1cc(-c2ccc(/N=N/c3ccc4c(S(=O)(=O)O)cc(S(=O)(=O)O)c(N)c4c3O)c(C)c2)ccc1/N=N/c1ccc2c(S(=O)(=O)O)cc(S(=O)(=O)O)c(N)c2c1O	inactive: > 100 µM
CO[C@@H]1C[C@H]2[C@@H]3CC[C@H]([C@H](C)CO)[C@@]3(C)CC[C@@H]2[C@@]2(C)CC[C@H]3C[C@]312	inactive: 90.6 µM
CCOC(=O)C(O)(NC(=O)NC(O)(C(=O)OCC)C(F)(F)F)C(F)(F)F (stereo unspecified)	inactive: > 100 µM
C=C1CC[C@]2(C)[C@H](CC[C@@]34C[C@@H](CC[C@H]32)[C@@H](C(=O)O)C4)C1(C)C	inactive: 7.31 µM
C/C=C/C(=O)[C@@H](O)C(C)C	inactive: > 100 µM
COc1ccc(Oc2nc(C#CC(C)(C)O)nc(Oc3ccc(OC)cc3)n2)cc1	inactive: 16.3 µM
CC1=NN(c2nc(N)nc(CC#N)n2)C(C)(C)C1	inactive: > 100 µM
Nc1ncnc2c1ncn2C=C=CCO	inactive: > 100 µM
O=C1Nc2ccccc2Cn2c1cc1oc(-c3ccccc3)cc12	inactive: 37.7 µM
C/C(=N\c1ccc(Cl)c(Cl)c1)c1ccncc1	inactive: > 100 µM
CCOc1ccc(/C=C2\NC(=S)N(/C=C3\C(=O)Oc4ccccc4C3=O)C2=O)cc1	inactive: 25.2 µM
COc1ccc(C2CC(=O)c3c(O)cc(O)cc3O2)cc1O (stereo unspecified)	inactive: > 100 µM
COc1ccc2nc3cc([N+](=O)[O-])ccc3c(Nc3ccc(S(=O)(=O)NC(C)=O)cc3)c2c1	inactive: 87.7 µM
CCOP(=O)(OCC)C(Nc1ccc(Br)cc1)c1cccc([N+](=O)[O-])c1 (stereo unspecified)	inactive: 20.9 µM
CC(=O)O[C@H]1CCC2[C@@H]3CCC4c5nonc5CC[C@]4(C)C3CC[C@@]21C (stereo partly specified)	inactive: > 10 µM
COc1cc2nc(-c3ccccc3)cc(O)c2c(OC)c1OC	inactive: > 100 µM
CC(=O)NCCCCN(CCCNC(C)=O)C(=O)OCc1ccccc1	inactive: > 100 µM
O=C(N[C@H]1CCC[C@H]1C(=O)Nc1ccc(C(F)(F)F)cc1)OCc1ccccc1	inactive: > 100 µM
COc1ccc2c(c1)c1cc(OC)ccc1n2CCCCOc1ccc(-c2c3ccccc3c(-c3ccc(OCCCCn4c5ccc(OC)cc5c5cc(OC)ccc54)cc3)c3ccccc23)cc1	inactive: > 100 µM
Cc1ccc(S(=O)(=O)NC(CCC(=O)NN)C(=O)NN)cc1 (stereo unspecified)	inactive: > 100 µM
CN(C)CCN1C(=O)c2cccc3cc([N+](=O)[O-])cc(c23)C1=O [MITONAFIDE]	inactive: 1.19 µM
